PubChem BioAssay AID1347073 (National Center for Advancing Translational Sciences (NCATS), 2019)
Out of some 45,000 compounds screened, about 200 (0.44%) were called active. Inconclusive results (about 7%) are left out. Calls come from the whole dose curve; as a rule, active = well fitted activation curve with a large enough effect; inconclusive = small, poorly fitted or top-dose-only effect; inactive = no such curve, though single readings can be large or run the other way. The list shows a part of the results.

assay: qHTS of TDP-43 Inhibitors: NCGC Sytravon Library Screen; conditions: yeast TDP-43 toxicity rescue, BacTiter-Glo growth, 24 h; series mostly up to 46.1 µM; growth rescue (activation): at the top concentration; note: 0% is about no effect; nearly all actives have a fitted effect of over 55% in size
Excerpt: The goal of this project is to identify new chemical probes capable of reversing the toxicity associated with TDP-43 which is associated with frontotemporal lobar degeneration and amyotrophic lateral sclerosis. These compounds will provide a complementary approach to deciphering the tangled mechanisms of toxicity and protection that we have uncovered through genome-wide genetic screens and are beginning to uncover in a large-scale proteomics analysis with mass spectroscopy. To this end, a miniaturized assay was developed to be screened against the Molecular Libraries Small Molecule Repository (MLSMR) to discover TDP-43 inhibitors. Please note that in the set-up this yeast-based assay compounds that inhibit as TDP-43, have a read-out as activators. NIH Chemical Genomics Center [NCGC] NIH Molecular Libraries Probe Centers Network [MLPCN] Assay Submitter (PI): Susan Lindquist, Whitehead Institute/MIT MLPCN Grant: R21 NS060957
Dispense 2.5 microL yeast galactose medium per 1536-well plate, pin compound, dispense 2.5 microL TDP-43 expressing yeast in galactose medium at OD600=0.02 (pregrown in raffinose medium to mid-log phase) per well, incubate for 24 hr at 30 deg C, and cell growth will be measured using 5 microL of Bactiter/Glo reagent to entire plate and read using Luminescence Protocol in ViewLux.

SMILES	growth rescue (activation)
CCOc1cc(C2C3=C(CCCC3=O)OC3=C2C(=O)CCC3)cc([N+](=O)[O-])c1O	inactive: 1.32%
Cc1ccc(S(=O)(=O)Nc2cc(C)cn(Cc3ccccc3)c2=O)cc1	inactive: 0.371%
Cc1ccc(S(=O)(=O)Nc2cc(C(F)(F)F)ccc2N2CCOCC2)cc1	inactive: 1.61%
COc1ccc(-n2ncc3c2ncn2nc(COc4ccc(Cl)cc4)nc32)cc1	inactive: 14.7%
O=C1N=c2ccc([N+](=O)[O-])cc2=C1c1sc(=O)[nH]c1O	inactive: 10.6%
O=C(NCCCN1CCOCC1)c1ccc2c(=O)n(Cc3cccc(Br)c3)c(=S)[nH]c2c1	inactive: 18.2%
COc1ccccc1CNc1ncnc2sccc12	inactive: 40.4%
CCn1c(CNC(=O)c2ccco2)nnc1SCC(=O)Nc1cc(F)ccc1C	inactive: 4.33%
Cc1c(C(=O)NCc2ccccc2)oc2c1C(=O)CCC2	inactive: -20.7%
CCCCNC(=O)/C=C/c1ccc(S(=O)(=O)Nc2ccc(OC)cc2)cc1	inactive: 10.9%
COc1ccc(N2CCN(C(=O)CN3C(=O)NC4(CCCCC4C)C3=O)CC2)cc1 (configuration not stated)	inactive: -13.4%
O=C(NCc1cccnc1)c1cc(C2CCCN(C(=O)c3cccs3)C2)on1 (configuration not stated)	inactive: -18.2%
CSc1ccccc1NC(=O)N1CCC(CO)(CC2CCCCO2)CC1 (configuration not stated)	inactive: 8.73%
COCCN(C(=S)Nc1c(C)cccc1C)C(C)c1cccnc1 (configuration not stated)	inactive: 8.8%
COc1ccc(CN2CCC2(C)C(=O)NCc2ccc3c(c2)OCO3)c2ccccc12 (configuration not stated)	inactive: 4.54%
O=C(c1ccccc1)N1CCN(C(=O)c2cc3nc(-c4ccccc4)cc(C(F)(F)F)n3n2)CC1	inactive: 15%
CCCn1c(SCC(=O)Nc2ccc(NC(C)=O)cc2)nc2c1c(=O)n(C)c(=O)n2C	inactive: 7.39%
O=C(NCc1ccco1)c1cc(-c2cccs2)nc2ccccc12	inactive: 3.84%
CCn1c(SCC(=O)N2CCC(C(N)=O)(N3CCCCC3)CC2)nnc1-c1ccccc1	inactive: 7.26%
CCc1ccc2[nH]c(=O)c(CN(CCN(C)C)C(=S)NCc3ccco3)cc2c1	inactive: 0.873%
COc1ccc(S(=O)(=O)NCc2ccccn2)c(C)c1C	inactive: 3.52%
C=CCNC(=S)Nc1ccc(N(C)C)cc1	inactive: -1.39%

SMILES	growth rescue (activation)
O=CN1CCN(S(=O)(=O)c2ccc(S(=O)(=O)NC3CCCCC3)cc2)CC1	inactive: 0.129%
CCOC(=O)c1cc2c(ccn2C)n1Cc1ccccc1Cl	inactive: 14.3%
CCC1(C)CC(c2nc(-c3ccc(OC)cc3)cs2)CCS1 (configuration not stated)	inactive: 2.79%
COc1ccccc1C(=O)NCc1nnc(SCC(=O)Nc2nccs2)n1C	inactive: -8.1%
CC(=O)Nc1nc(C)cs1	inactive: 0.911%
O=C(CSC1=NC(=O)C(c2ccccc2)C(=O)N1)Nc1ccccc1[N+](=O)[O-] (configuration not stated)	inactive: 2.14%
COC(=O)COc1ccc2oc(-c3ccc(OC)cc3)cc(=O)c2c1	inactive: 12.6%
CCCCN(C=O)c1c(CC)nc2c(OCc3ccc(S(C)(=O)=O)cc3)cccn12	inactive: -18.7%
COC(=O)c1ccc(NC(=O)C(=O)N2CCN(C(=S)Nc3ccc(C)cc3)CC2)cc1	inactive: 26.8%
CC(C)(C)NS(=O)(=O)c1ccc(NC(=O)C2CCCCC2)cc1	inactive: 7.94%
COc1ccc(Nc2nnc(-c3ccccc3)c3ccccc23)cc1C(=O)N1CCCCC1	inactive: 6.16%
O=C(CCC1CCCN(C(=O)c2ccc3cc[nH]c3c2)C1)N1CCN(c2ccccn2)CC1 (configuration not stated)	inactive: 0.443%
Cc1ccc(-n2c(C)cc(/C=c3/sc4nc5ccccc5n4c3=O)c2C)cc1	inactive: 11.8%
CCc1ccc(-c2nc(CS(=O)CC(=O)NCc3cccnc3)c(C)o2)cc1 (configuration not stated)	inactive: -0.192%
CC(C)CCOCC(=O)Oc1ccccc1C(=O)O	inactive: -9.84%
N#CCC(=O)Nc1ccc(C(=O)N2CCN(c3ccccn3)CC2)cc1	inactive: 7.37%
COc1ccccc1NC(=O)CNC(=O)Cn1c(C)cc2ccccc2c1=O	inactive: -6.93%
CCCC(=O)n1nc(NCc2ccc(OC)cc2)nc1NCc1ccc(OC)cc1	inactive: 11%
O=C(c1ccc(N2CCCS2(=O)=O)cc1)N1CCN(c2ccc(F)cc2)CC1	inactive: 11.1%
CCCCC(=O)NC(NC(=S)N1CCCCCC1)C(Cl)(Cl)Cl (configuration not stated)	inactive: 3.75%
COc1cc(/C=C2\SC(=Nc3ccccc3)NC2=O)cc(Cl)c1O	inactive: 13.3%
Cc1ccc(NC(=O)c2ccccc2NC(=O)c2cccs2)cc1	inactive: 7.49%

SMILES	growth rescue (activation)
CCCc1nnc(NC(=O)CSc2nnc(-c3ccco3)n2C)s1	inactive: -7.43%
CNC(=S)Nc1cc(OC)c(NC(=O)c2ccco2)cc1OC	inactive: 13.5%
CC(NCC(O)COc1ccc2ccccc2c1)c1ccccc1 (configuration not stated)	inactive: -6.57%
COC(=O)c1ccc(NC(=O)CN(CCc2ccccc2)S(=O)(=O)c2ccc(OC)cc2)cc1	inactive: -0.444%
COc1cc(OC)cc(C(=O)NCC(=O)OC(C)C(=O)NC(C)C2CC3CCC2C3)c1 (configuration not stated)	inactive: 9.15%
CNC(=O)COc1ccc(S(=O)(=O)Nc2ccccc2)cc1	inactive: -4.96%
O=C(NCc1ccco1)/C(=C/c1ccccc1)NC(=O)c1ccco1	inactive: -1.85%
CCn1c(C(=O)NCc2ccc(OC(C)C)cc2)cc2oc3ccccc3c21	inactive: 23.3%
CC1(C(=O)NS(=O)(=O)c2ccc(Cl)cc2)CCN1C(=O)Cc1cccs1 (configuration not stated)	inactive: 5.27%
Cc1ccc(S(=O)(=O)Nc2ccc(N3CCOCC3)cc2)cc1C	inactive: -5.87%
Cc1ccc(C2=N/C(=C\c3cccnc3)C(=O)O2)cc1	inactive: -5.02%
COc1ccccc1NS(=O)(=O)c1ccc(N/N=C(\C)C(C)C)c([N+](=O)[O-])c1	inactive: 13.5%
COC(=O)COc1ccc(C)cc1-n1nc2ccccc2n1	inactive: 10.2%
CCC1=NN(C(=O)COc2ccccc2)C(O)(c2ccc(Br)cc2)C1 (configuration not stated)	inactive: 26.2%
COC(=O)c1cccc(NC(N)=S)c1	inactive: -18.3%
CCC(CCC(=O)Nc1cccc(C(=O)O)c1)C(=O)O (configuration not stated)	inactive: -13.5%
O=C(NCC1CCCO1)/C(=C/c1cn(-c2ccccc2)nc1-c1cccnc1)NC(=O)c1ccccc1 (configuration not stated)	inactive: 6.65%
CCOc1ccc(/C(O)=C2/C(=O)C(=O)N(CCN(CC)CC)C2c2ccco2)cc1 (configuration not stated)	inactive: 12.7%
Cc1cc(C(=O)NN)n[nH]1	inactive: 6.25%
COc1ccc(Nc2nc(C)nc3c2oc2ccccc23)c(OC)c1	inactive: 5.83%
O=C(c1cc(-c2cccc(Cl)c2)on1)N1CCN(c2ccccc2)CC1	inactive: -7.89%
Cc1ccc(OCC(=O)Nc2ccc3c(c2)ncn3C)cc1	inactive: -5.44%

SMILES	growth rescue (activation)
CCOc1ccccc1NC(=O)N(Cc1ccc(F)cc1)C1CCN(CC)CC1	inactive: 16.9%
CC1CCCN(c2cc3c(cc2[N+](=O)[O-])C(=O)N(c2ccccc2)C3=O)C1 (configuration not stated)	inactive: -0.131%
CCNc1nc(NC(C)(C)C)nc(SCC(N)=O)n1	inactive: 7.22%
COc1ccc(S(=O)(=O)N2CCC(n3cnc4ccccc43)CC2)cc1	inactive: -12.6%
Cc1nc2ccccn2c1C(=O)NN	inactive: 3.15%
Cc1cccc(Nc2ncnc(N)c2[N+](=O)[O-])n1	inactive: 11%
O=C(Nc1cccc2nsnc12)c1ccc(-c2cccc(Cl)c2)o1	inactive: 11.5%
CN(C)CCCNS(=O)(=O)c1ccc(NC2CCCCCC2)c([N+](=O)[O-])c1	inactive: 3.92%
CCC1CC2(C)NC(=O)c3c(sc4c3CC(C)(C)OC4)N2C1=O (configuration not stated)	inactive: 7.13%
O=C(Nc1ccccc1C(=O)Nc1ccncc1)c1ccc([N+](=O)[O-])cc1	inactive: 15.7%
CC(=O)Nc1ccc(CN2CCCC(C(=O)c3ccc(C(F)(F)F)cc3)C2)cc1 (configuration not stated)	inactive: 8.1%
CCNC(=O)c1sc(=S)n(CC)c1N	inactive: 3.55%
CC1CCCC(NC(=O)CN2C(=O)NC(c3ccccc3)(c3ccccc3)C2=O)C1C (configuration not stated)	inactive: 19.5%
COc1cccc(NC(=O)c2cc([N+](=O)[O-])ccc2N2CCN(C)CC2)c1	inactive: 8.67%
CC(C)OCc1ccc(C(=O)N2CCN(CC(=O)N3CCCC3)CC2)cc1	inactive: 29.5%
COc1cc(NC(=O)C(=O)NCCN(C)C)c(OC)cc1Cl	inactive: -25.6%
CCN(CC(=O)NCc1cccs1)C(=O)Cc1ccc(Cl)c(Cl)c1	inactive: -9.12%
COc1cccc(C(=O)Nc2cccnc2)c1OC	inactive: 12.6%
Cn1c(/C(C#N)=C(\O)c2ccc([N+](=O)[O-])cc2)nc2ccccc21	inactive: -4.11%
O=C(Nc1ccc(Cl)cc1)Nc1cccc(C(=O)O)c1	inactive: 3.41%
CC(=O)NS(=O)(=O)c1ccc(NS(=O)(=O)c2ccc3ccccc3c2)cc1	inactive: 1.72%
Cc1ccc(S(=O)(=O)N2CCN(C(=O)CSc3ccc(Cl)cc3)CC2)cc1	inactive: 6.51%

SMILES	growth rescue (activation)
O=C(NCc1ccc(N2CCCC2=O)cc1)C1CCC(=O)N(Cc2ccccc2F)C1 (configuration not stated)	inactive: -1.9%
CCC(C)(C)NC(=O)C(c1cccc(OC)c1)N(C(=O)CNC(=O)c1cccs1)c1cccnc1 (configuration not stated)	inactive: -0.541%
CCCN(CC1CC1)C(=S)NC(=O)c1ccc(S(=O)(=O)N2CCOCC2)cc1	inactive: 21.7%
O=C1Nc2ccc(S(=O)(=O)NCc3ccccn3)c3cccc1c23	inactive: -25.8%
CN(C)S(=O)(=O)c1ccc(Cl)c(C(=O)NCC2CCCCC2)c1	inactive: 12.5%
CN(C)C(CNc1ccc(C(N)=O)cc1[N+](=O)[O-])c1ccccc1 (configuration not stated)	inactive: 6.07%
CCCn1c(-c2cccs2)nc2c1c(=O)[nH]c(=O)n2Cc1ccccc1	inactive: 7.89%
Cc1cc(C(=O)Cn2nc(C(=O)O)c3ccccc3c2=O)c(C)n1CCc1ccc(F)cc1	inactive: 19.9%
Cn1c(COc2cccc3cccnc23)nnc1SCC(=O)O	inactive: 4.59%
CCOc1ccc(Cc2nc(-c3nonc3N)no2)cc1OCC	inactive: 28.1%
Cc1ccc(S(=O)(=O)Nc2nc(C)cc(NN)n2)cc1	inactive: 9.31%
COC(=O)C(Cc1ccc(O)cc1)NC(=O)CCc1ccco1 (configuration not stated)	inactive: -18.3%
COc1cc(NC(=O)CNC(=O)Cn2c(C)cc3ccccc3c2=O)cc(OC)c1OC	inactive: 9.26%
COc1ccccc1P(=O)(Cc1ccccc1[N+](=O)[O-])c1ccccc1 (configuration not stated)	inactive: -5.11%
CCC(C)NS(=O)(=O)c1ccc(S(=O)(=O)N2CC=C(c3ccc(F)cc3)CC2)cc1 (configuration not stated)	inactive: 5.1%
CCN(C(=O)CSc1nnc(-c2cccs2)n1CC)C1CCS(=O)(=O)C1 (configuration not stated)	inactive: 12.6%
O=C(Nc1cccc(Cl)c1)c1ccc(F)c(S(=O)(=O)NCc2ccc3c(c2)OCO3)c1	inactive: -1.82%
C[N+]1(CC(=O)OCCCc2ccccc2)CCCC1	inactive: -5.01%
CCC(=O)N1N=C(c2cccs2)CC1c1ccco1 (configuration not stated)	inactive: 9.8%
